# Laboratory results taken from article PMC4336329 (PLoS ONE, 2015).
# Screen size: about 310,000 compounds; about 2,200 (0.71%) showed an effect of 50% or more. The effect is printed as a negative number. The list shows a part of the results.
# Molecular target: human ether-à-go-go-related gene (hERG) potassium channel (human, UniProt Q12809)
# Experiment: primary screen, population patch clamp on CHO cells stably expressing hERG
# Chain of human ether-à-go-go-related gene (hERG) potassium channel (Q12809 whole entry, looked up): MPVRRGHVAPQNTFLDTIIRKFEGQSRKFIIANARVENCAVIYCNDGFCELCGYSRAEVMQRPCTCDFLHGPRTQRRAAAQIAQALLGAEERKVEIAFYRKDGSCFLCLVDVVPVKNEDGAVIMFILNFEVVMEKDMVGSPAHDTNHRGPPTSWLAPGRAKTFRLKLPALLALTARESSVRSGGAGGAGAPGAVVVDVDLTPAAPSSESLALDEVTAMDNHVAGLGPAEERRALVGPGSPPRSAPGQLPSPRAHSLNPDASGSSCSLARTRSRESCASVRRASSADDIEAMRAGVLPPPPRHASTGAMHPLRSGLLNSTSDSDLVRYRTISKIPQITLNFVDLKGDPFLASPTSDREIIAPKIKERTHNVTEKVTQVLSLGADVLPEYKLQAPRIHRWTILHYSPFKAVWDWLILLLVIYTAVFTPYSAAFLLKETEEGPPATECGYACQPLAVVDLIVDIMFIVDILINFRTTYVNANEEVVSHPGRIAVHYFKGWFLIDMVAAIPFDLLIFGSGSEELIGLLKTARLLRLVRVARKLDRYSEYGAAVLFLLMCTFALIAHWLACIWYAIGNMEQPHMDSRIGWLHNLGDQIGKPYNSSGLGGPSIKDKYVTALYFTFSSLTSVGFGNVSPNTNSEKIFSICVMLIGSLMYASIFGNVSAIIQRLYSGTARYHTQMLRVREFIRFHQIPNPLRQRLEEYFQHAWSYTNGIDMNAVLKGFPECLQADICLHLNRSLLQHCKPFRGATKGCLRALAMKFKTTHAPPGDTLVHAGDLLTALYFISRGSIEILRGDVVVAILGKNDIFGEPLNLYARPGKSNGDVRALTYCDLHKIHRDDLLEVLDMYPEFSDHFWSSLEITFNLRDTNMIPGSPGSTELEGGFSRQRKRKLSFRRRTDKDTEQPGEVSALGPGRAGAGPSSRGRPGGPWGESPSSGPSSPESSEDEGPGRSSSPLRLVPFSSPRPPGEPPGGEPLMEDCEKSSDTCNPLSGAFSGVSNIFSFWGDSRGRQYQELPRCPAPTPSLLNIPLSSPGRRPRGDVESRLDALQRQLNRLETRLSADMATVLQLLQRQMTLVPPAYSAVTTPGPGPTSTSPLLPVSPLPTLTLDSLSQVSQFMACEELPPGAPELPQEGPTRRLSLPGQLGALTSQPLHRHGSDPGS
row,Compound,"hERG current change (%, negative = inhibition) at 1uM"
1,COc1ccccc1CNCC(O)(c1ccc(F)cc1)c1ccc(F)cc1,-13.7%
2,COCC1CCCN(C(=O)c2cc(COc3cncc(Cl)c3)on2)C1 (stereo not drawn),18.5%
3,CN(CC(=O)Nc1ccccc1Cl)C(=O)CSc1nnc(-c2ccco2)n1C,16.4%
4,CC(C)(C)NC(=O)CSc1nncn1NCc1ccccc1,5.49%
5,Nc1c(C(=O)N/N=C/c2cccnc2)cnn1-c1ccccc1,9.47%
6,COc1ccc(N2CCN(C(=O)c3ccc4c(=O)n5c(nc4c3)CCCCC5)CC2)cc1,-14.9%
7,O=C(c1cc2cc(Br)ccc2o1)N1CCCC1,7.09%
8,CCCn1ncc(C(=O)N(C)C2CCCN(Cc3ccccc3F)C2)c1C (stereo not drawn),12.2%
9,COc1ccc2nc(SCc3ccccc3C)nc(C)c2c1,6.15%
10,CCCOc1ccc(Cn2cnc3ccccc32)cc1,1.77%
11,CC(=O)CC(C)(C)n1c[n+](C)nn1.[O-][Cl+3]([O-])([O-])[O-],4.2%
12,CCc1ccc2c(c1)cc(CN(C(=S)Nc1ccc(Cl)cc1)C1CC1)c1nnnn12,11.9%
13,CC(C)C(C(=O)N1CCN(Cc2ccccc2)CC1)c1ccccc1.Cl (stereo not drawn),10%
14,Cc1cc(C)nc(NC(=O)CSc2nc3ccccc3s2)n1,8.71%
15,CC(=O)c1ccc(NC(=O)c2cccs2)cc1,14.4%
16,COC(=O)Cc1ccc(NC(=S)N2CCC(Cc3ccccc3)CC2)cc1,8.98%
17,COC(=O)c1cccc(NC(=O)CSc2nnc(C)o2)c1,11.3%
18,Cc1ccc(C(=O)NNc2cc(N3CCCC3)nc(N3CCCC3)n2)cc1,-8.37%
19,COc1ccc(C(=O)CSc2n[nH]c(N)n2)cc1,10.4%
20,CCc1ccc(NC(=O)[C@H](C)NC(=O)C2CCN(C(=O)[C@@H](NC(=O)OC(C)(C)C)C(C)C)CC2)cc1,4.94%
21,CC(=O)Nc1ccccc1OCc1nnc(-c2ccc(Cl)cc2)o1,0.667%
22,CCN1C(=O)/C(=C\N2CCCCCC2)SC1=S,12.3%
23,CC1CCCCC1NC(=O)CN1C(=O)CSc2cc(S(=O)(=O)N3CCCCCC3)ccc21 (stereo not drawn),7.3%

row,Compound,"hERG current change (%, negative = inhibition) at 1uM"
1,CC(C)(C)C1CCc2onc(C(=O)Nc3cccc(O)c3)c2C1 (stereo not drawn),11.6%
2,O=C(Nc1ccc(N2CCN(Cc3ccccc3)CC2)cc1)c1ccccc1[N+](=O)[O-],7.68%
3,O=C(NC1=NCCS1)c1ccc(Br)s1,-13.2%
4,CCc1nnc(NC(=O)Cc2cccs2)s1,2.4%
5,Nc1cc(=O)[nH]c(SCC(=O)Nc2cccnc2Cl)n1,9.3%
6,COc1ccc(-n2nnc3c(=O)n(CC(=O)OCc4ccccc4)cnc32)cc1,4.05%
7,O=C(Nc1cc(S(=O)(=O)N2CCCCCC2)ccc1OCC(F)(F)F)C1CCC1,0.79%
8,Cc1ccc(S(=O)(=O)Cc2ccc(C(=O)N3CCCC3)o2)cc1,8.97%
9,CCOc1c(Br)cc(C(N)=O)cc1OCc1ccccc1,12.1%
10,Cc1ccc(C(=O)NCCCNC(=O)COc2ccc(C)c(C)c2)cn1,8.8%
11,COc1cc(Cl)c(C)cc1NC(=O)CC1SC(N2CCOCC2)=NC1=O (stereo not drawn),4.33%
12,CCC(C)(C)NC(=O)C(c1ccc(C)o1)N(Cc1ccc2c(c1)OCO2)C(=O)c1snc(C(N)=O)c1N (stereo not drawn),7.31%
13,Cc1ccc([N+](=O)[O-])cc1-c1ccc(/C=N/NC(=O)CN2CCOCC2)o1,-1.88%
14,COC(=O)C1=NN(C(=O)c2ccccc2)C(C)(O)C1 (stereo not drawn),8.16%
15,CCSc1nnc(NC(=O)C2(C)Cc3ccccc3C(=O)O2)s1 (stereo not drawn),0.696%
16,CCn1c(/C=C/Nc2ccccc2)[n+](CC)c2cc(Cl)c(Cl)cc21.[I-],-87.2%
17,CC(=O)c1cccc(NC(=O)CSc2nc(=O)n(Cc3ccccn3)c3c2CCC3)c1,17.3%
18,CS(=O)(=O)Nc1ccccc1C(=O)Nc1ccccc1C(=O)N1CCCC1,12.2%
19,COc1cccc(NC(=O)CSc2nnc(-c3cc(C)n(-c4ccccc4)c3C)o2)c1,10.4%
20,CC1CCCC(C)N1CC(O)COc1c(F)cc(Br)cc1F.Cl (stereo not drawn),-20.6%
21,CC1CCCCC1NC(=O)c1nn(C)c2c1CS(=O)(=O)c1ccccc1-2 (stereo not drawn),17.8%
22,CCc1ccc(NC(=O)Cc2c(C(=O)O)n(C)c3ccccc23)cc1,8.88%
23,O=c1[nH]c2ccccc2n1Cc1ccc(Cl)cc1,7.33%

row,Compound,"hERG current change (%, negative = inhibition) at 1uM"
1,CN(C(=O)CCOc1ccccc1)c1c(N)n(Cc2ccccc2)c(=O)[nH]c1=O,-2.83%
2,CC(C)n1nnnc1SCC(=O)Nc1ccc2c(c1)OCCO2,9.45%
3,Cn1c(=O)c2c(nc(-n3ccnc3)n2C)n(C)c1=O,9.17%
4,CCOC(=O)C(C)On1c(-n2nc(C)cc2C)nc2ccccc2c1=O (stereo not drawn),15.8%
5,Cc1ccnc(NS(=O)(=O)c2ccc(NC(=O)/C=C/c3cccs3)cc2)n1,-1.69%
6,COC(=O)C1=C(c2cccc(OC)c2OC)C[C@@H]2CC[C@H]1N2C(=O)NCc1ccccc1,7.51%
7,C/C(=N/NC(=O)c1ccccc1)C(=O)O,6.05%
8,C=CCNC(=S)Nc1nc2c(cc1C(=O)OCC)CCCC2,7.39%
9,CCc1noc(C)c1C(=O)OCC(=O)NC(=O)c1ccccc1OC,5.75%
10,CCOc1ccc(N2CSC3=C(C#N)C(c4ccco4)CC(=O)N3C2)cc1 (stereo not drawn),-4.38%
11,Cc1cc(NC(=O)CSc2nnc(-c3ccc([N+](=O)[O-])cc3)o2)no1,11.2%
12,Cc1cc(Cl)ccc1NC(=S)NCc1cccs1,10.6%
13,CC(=O)c1ccc(NC(=O)Cn2cnc(S(=O)(=O)N3CCC(C)CC3)c2)cc1,16%
14,COC(=O)c1cc(=O)n(CCc2ccc(OC)c(OC)c2)c(=Nc2ccc(F)c(Cl)c2)s1,4.37%
15,COc1ccc(-c2cc(N)n(S(=O)(=O)Cc3ccccc3)n2)c(OC)c1,-4.34%
16,CC(C)(CSc1ccccn1)NS(=O)(=O)c1ccc(Cl)cc1,3.44%
17,Cc1ccccc1NC(=O)CN1C(=O)CSc2ccc(S(=O)(=O)N3CCCCC3)cc21,17.2%
18,Cc1ccc(S(=O)(=O)c2nc(-c3ccco3)oc2SCC(N)=O)cc1,1.15%
19,CN(C)CP(=O)(Nc1ccccc1)N(C)C (stereo not drawn),10.9%
20,Cc1[nH]c(=O)[nH]c(=O)c1S(=O)(=O)Nc1ccc(F)cc1F,15.4%
21,Cc1ccc(S(=O)(=O)N2CCOCC2)cc1C(=O)NC(=S)N(Cc1ccccc1)C(C)C,3.95%
22,CCc1cc(C(=O)OC)c(NC(=O)CC2SC(N)=NC2=O)s1 (stereo not drawn),7.42%
23,COc1ccc2c(c1)c(C(=O)CN1CCCCC1)c(C)n2C,11%

row,Compound,"hERG current change (%, negative = inhibition) at 1uM"
1,O=C1C2C3CC(C(Br)C3Br)C2C(=O)N1c1ccccn1 (stereo not drawn),9.57%
2,COc1ccc2nc(NC(=O)C(NS(=O)(=O)c3cccs3)C(C)C)sc2c1 (stereo not drawn),14%
3,O=c1cc(CNc2cc(Cl)ccc2Cl)nc2sccn12,9.26%
4,COc1ccc(NC(C)=O)cc1NC(=O)CN1CCN(c2ccccn2)CC1,14.3%
5,NC1=NC[C@H](Cc2ccc(O)cc2)N1CCc1cc(C(F)(F)F)cc(C(F)(F)F)c1,14.2%
6,CCOC(=O)C1=C(C)N=C2SC(C)C(=O)N2C1c1ccc(OC(C)=O)c(OCC)c1 (stereo not drawn),5.77%
7,COCCC1CCCCN1C(=O)c1cc(COc2ccc(C)nc2)on1 (stereo not drawn),-3.12%
8,O=C(O)CCc1nn2c3ccccc3nc2n(Cc2ccccc2)c1=O,18%
9,O=C(CSc1nnnn1C1CCCCC1)Nc1ccc2c(c1)OCO2,16.9%
10,CCOc1ccccc1C(=O)N(CCC(=O)OC)c1ccccn1,15.4%
11,COc1ccc(C(=O)CCN2CCCCCC2)cc1.Cl,-4.54%
12,COc1ccc(C(=O)CSc2nnnn2Cc2ccccc2)cc1,9.02%
13,CSc1cccc(NC(=O)CCS(=O)(=O)c2cccc3nonc23)c1,2.83%
14,CC(=O)NC(Cc1cccc(F)c1)C(=O)NC1CCN(c2nnnn2-c2ccccc2)CC1 (stereo not drawn),10.3%
15,O=C(NNC(=O)c1sc2cccc(Cl)c2c1Cl)NC1CCCCC1,8.81%
16,O=C(NCCCc1ccccc1)C1CC(=O)N(c2ccc3c(c2)OCCO3)C1 (stereo not drawn),4.59%
17,CN1C(=S)SC(N(O)C(=O)Nc2ccc(Cl)c(Cl)c2)C1(C)C (stereo not drawn),4.66%
18,COc1ccccc1N1C(=O)Cc2ccccc2C1=O,11.8%
19,COC(=O)C1=C(c2ccc(-c3ccccc3)c(F)c2)C[C@@H]2CC[C@H]1N2C(=O)NCCOc1ccccc1Cl,11.6%
20,O=C1CCCN1CC(O)CS(=O)(=O)Cc1ccccc1 (stereo not drawn),10.8%
21,CC1(c2ccc(Cl)cc2)NC(=O)N(CN2CCOCC2)C1=O (stereo not drawn),9.42%
